The values below come from the RNAGym collection of RNA variant scans (doi:10.1101/gad.245936.114).

Variants at the background level are over-represented here.

B1: tRNA (parent)
chain: CUCUCGGUAGCCAAGUUGGUUUAAGGCGCAAGACUUUAAUUUAUCACUACGAAAUCUUGAGAUCGGGCGUUCGACUCGCCCCCGGGAGAUUUUUUCCUCGAGCAA

Variants of B1 are the subject of this series. Briefly: nonsense suppression (GFP-seq) (ratio to wild type); higher = more function; SUP4oc tRNA, yeast GFP reporter sort-seq. The gist of the method: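 Nonsense suppression (GFPSEQ) is the median GFP/RFP ratio of each sorting bin, weighted by the variant's estimated share of cells in that bin and expressed relative to the unmutated parent tRNA. Yeast strains carried genome-integrated variants of an ochre-suppressor tRNA from a library with ~3% random mutations, plus a galactose-driven GFP ochre reporter and RFP, and were grown in raffinose/galactose medium containing 80 mg/L adenine. Cells were sorted into GFP/RFP bins, each bin was Illumina-sequenced (phred ≥30), and variants were kept only with ≥100 reads and ≥30 cells.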
Regarding AUCUCGGUAGCCAAGUUGGUUUAAGGCGCAAGACUUUAAUUUAUCACUACGAAAUCUUGAGAUCGGGCGUUCGACUCGCCCCCGCGAGAUUUUUUCCUCGAGCAA [C1A G85C], the nonsense suppression was at most 0.026.

In the case of CUCUCGGUACCCAAGUUGGUUUAAGGCGCAAGACUUUAAUUUAUCACUACGAAAUCUAGAGUUCGGGCGUUCGACUCGCCCCCGGGAGAUUUUUUCCUCGAGCAA [G10C U58A A62U], the nonsense suppression is at most 0.026.

For the variant CUCUCGGUAGCCAAGUUGGUUUAAGGCUCAAGACUUUAAUUUAUCACUACGAAAUCUUGAGAUCGGGCGUUCGACUCGCACCCGGGAGAUUUUUUCCUCGAGCAA [G28U C80A], the nonsense suppression is at most 0.026.

With CUCUCGGUAGCCAAGUUGGUUUAAGGCGCAGGACUUUAAUUUAUCACUACGAAAUCUUGAGAUCGGGCGCUCGACUCGCCGCCGGGAGAUUUUUUCCUCGAGCAA [A31G U70C C81G], the nonsense suppression is at most 0.026. With CUCUCGGUAGCCAAGUUGGUUUAAGGCGCAAGACUUUAAUUUAUCACUACGAAAUCUUGAGAUCGGGCGGUGGACUCGCGCCCGGGAGAUUUUUUCCUCGAGCAA [U70G C72G C80G] the figure was at most 0.026; with CUCUCGGUAGCCAAGUUGGUUUAAGGCGCAAGACUUUAAUUUAUCACUACGAAAUCUUGAGACCGGGCGUUCGACUCGCCCCCGAGAGAUUUUUUCCUCGAGCAA [U63C G85A], 1.06.

CUCUCGGUAGCCAAGUUGGUUUAAGGCGCAAGACUUUAAUUUAUCACUACGAAAUCCUGAGAUCGGGGGUUCGACUCGCCCCCGGGAGAUUUUUUCCUCGAGCAA [U57C C68G]: the nonsense suppression is at most 0.026. With CUCUCGGUAGCCAAGUUGGUUUAAGGCGCAAGGCUUUAAUUUAUCACUACGAAAUCGUGAGAUCAGGCGUUCGACACGCCCCCGGGAGAUUUUUUCCUCGAGCAA [A33G U57G G65A U76A] the figure was at most 0.026; with CUCUCGGUAGCCAAGUUGGUUUAACGCGCAAGACUUUAAUUUAUCACUACGAAAUCUUGAGAUCGGGCGUUCGACUCGCCCCGGGGAGAUUUUUUCCUCGAGCAA [G25C C83G], at most 0.026; with GUCUCGGUUGCCAAGUUGGUUUAAGGCGCAAGCCUUUAAUUUAUCACUACGAAAUCUUGAGAUCGUGCGUUCGACUCACCCCCGGGAGAUUUUUUCCUCGAGCAA [C1G A9U A33C G66U G78A], at most 0.026.

Consider CUCUCGGUAGCCAAGUUGGUUUAAGGCGCAAGACUUUAAUUUAUCACUACGAAAUGUUGAGAUCGGGCGUUCGACUCGCACCCGGGACAUUUUUUCCUCGAGCAA [C56G C80A G88C], for which the nonsense suppression was at most 0.026. CUCUCGGUAGCCAGUUUGGUUUAAGGCGCAAGACUUUAAUUUAUCACUACGAAAUCCUGAGAUCGGGCGUUCGACUCGCCCCCGGGAGAUUUUUUCCUCGAGCAA [A14G G15U U57C]: the nonsense suppression was at most 0.026.

As for CUCUCGGUCGCCAAGUUGGUAUAAGGCGCAGGACUUUAAUUUAUCACUACGAAAUCUUGAGAUCGGGCGUCCGACUCGCCCCCGGGAGAUUUUUUCCUCGAGCAA [A9C U21A A31G U71C], the nonsense suppression was at most 0.026. As to CUCUCGGUAACCCAGUUGGUUUAAGGCGCAAGACUUUAAUUUAUCACUACGAAAUCUUGAGAUCGGGCGUUCGACUCGCCCCCGGGAGAUUUUUUCCUCGAGCAA [G10A A13C], the nonsense suppression was determined as 0.0618.

In the case of CUCUCGGUAGCCAAGUUGGUUUAAGGCGCAAGAGUUUAAUUUAUCACUACGAAAUCUUGAGAUAGGGCGUUCGACUCGCCCCCGGGAGAUUUUUUCCUCGAGCAA [C34G C64A], the nonsense suppression was at most 0.026. Regarding CUCGCGGUAGCCAAGUUGGUUUAAGGCGCAAAGCUUUAAUUUAUCACUACGAAAUCUUGAGAUCGGGCGUUCGACUCGCCCCCGGGAGAUUUUUUCCUCGAGCAA [U4G G32A A33G], the nonsense suppression was at most 0.026.

Turning to CUCUCGUUAGCCAAGUUGAUGUAAGGCGCAAGACUUUAAUUUAUCACUACGAAAUCUUGAGAUCGGGCGUUCGACUCGCCCCCGGGAGAUUUUUUCCUCGAGCAA [G7U G19A U21G], the nonsense suppression was at most 0.026. Take CUCUCGUGAGCCAAGUUGGUUUAAGGCGCAAGACUUUAAUUUAUCACUACGAAAUCUUGAGAUCGGGCGUUCGACUCGCCCCCGGGAGAUUUUUUCCUCGAGCAA [G7U U8G]: the nonsense suppression was at most 0.026.

On to CUCUCGGUAGCCAAGUUAGUUUAAGGCGCAAUACUUUAAUUUAUCACUACGAAAUCUUGAGAUCGGGCGUUCGACUCGCCCCCGGGAGAUUUUUUCCUCGAGCAA [G18A G32U], for which the nonsense suppression was at most 0.026. With CUCUCGGUAGCCAAGUUGCUGUAAGGCGCAAGACUUUAAUUUAUCACUACGAAAUCUUGAGAUCGGGCGUUCGACGCGCCCCCGGGAGAUUUUUUCCUCGAGCAA [G19C U21G U76G] the figure was at most 0.026; with CUCUCGGUAGCUAAGUUGGUUUAACGCGCAAGACUUUAAUUUAUCACUACGAAAUCUUGAGAUCGGGCGUUCGACUCGCCCCCGGGAGAUUUUUUCCUCGAGCAA [C12U G25C], 0.184; with CUCUCGGUAGCGAAGUUGGUUUAAGGCGCAAGACUUUAAUUUAUCACUACGAAAUCUUGAGAUCGGGCGUGCGACUCGCCCCCGGGAGAUUUUUUCCUCGAGCAA [C12G U71G], 0.859. As for CUCUCGGUUGCCAAAUUGGUUUAAGGCGCAAGACUUUAAUUUAUCACUACGAAAUCUUGAGAUCGGGCGUUCGACUCGCCCCCGGGAGAUUUUUUCCUCGAGCAA [A9U G15A], the nonsense suppression was 0.0449. Next, CUCUCGGUAGCAAAGUUGGUUUAAGGCGGAAGACUUUAAUUUAUCACUACGAAAUCUUGAGAUCGGGCGUUCGACUCGCCCCCGGGAGAUUUUUUCCUCGAGCAA [C12A C29G]: at most 0.026; UUCUCGGUAGCCAAGUUGGUUUACUGCGCAAGACUUUAAUUUAUCACUACGAAAUCUUGAGAACGGGCGUUCGACUCGCCCCCGGGAGAUUUUUUCCUCGAGCAA [C1U A24C G25U U63A]: at most 0.026. Turning to CUCUCGGUAGCCAAGUUGGUUUAAGGCGCAGGACUUUAAUUUAUCACUACGAAAUCUUUAGAUCGUGCAUUCGACUCGCGCCCGGGAGAUUUUUUCCUCGAGCAA [A31G G59U G66U G69A C80G], the nonsense suppression was at most 0.026.

With CUGUCGGUCGCCAAGUUCGUUUAAGGCGCAUGACUUUAAUUUAUCACUACGAAUUCUUGUGAUCGGGUGUCCGACUCGCCCCCGGGAGAUUUUUUCCUCGAGCAA [C3G A9C G18C A31U A54U A60U C68U U71C], the nonsense suppression was at most 0.026.
